The values below come from ChEMBL document CHEMBL2157866, “Virtual screening and computational optimization for the discovery of covalent prolyl oligopeptidase inhibitors with activity in human cells” (J Med Chem, 2012).

The data set has as its system Cc1cc(=O)oc2cc(NC(=O)[C@@H]3CCCN3C(=O)CNC(=O)OCc3ccccc3)ccc12. Description: Activity of human recombinant FAPalpha incubated for 30 mins by fluorimetric assay.

For “Prolyl endopeptidase FAP (Homo sapiens) (sequence left out)”, the Michaelis-Menten constant (Km) was 103 µM.
